Assay results from paper PMC4336329 (PLoS ONE, 2015).
About 2,200 (0.71%) of roughly 310,000 compounds showed an effect of 50% or more. Effects have a minus sign here. The list shows a part of the results.

target: human ether-à-go-go-related gene (hERG) potassium channel (human, UniProt Q12809); assay: primary screen, population patch clamp on CHO cells stably expressing hERG
Sequence (Q12809 whole entry, looked up): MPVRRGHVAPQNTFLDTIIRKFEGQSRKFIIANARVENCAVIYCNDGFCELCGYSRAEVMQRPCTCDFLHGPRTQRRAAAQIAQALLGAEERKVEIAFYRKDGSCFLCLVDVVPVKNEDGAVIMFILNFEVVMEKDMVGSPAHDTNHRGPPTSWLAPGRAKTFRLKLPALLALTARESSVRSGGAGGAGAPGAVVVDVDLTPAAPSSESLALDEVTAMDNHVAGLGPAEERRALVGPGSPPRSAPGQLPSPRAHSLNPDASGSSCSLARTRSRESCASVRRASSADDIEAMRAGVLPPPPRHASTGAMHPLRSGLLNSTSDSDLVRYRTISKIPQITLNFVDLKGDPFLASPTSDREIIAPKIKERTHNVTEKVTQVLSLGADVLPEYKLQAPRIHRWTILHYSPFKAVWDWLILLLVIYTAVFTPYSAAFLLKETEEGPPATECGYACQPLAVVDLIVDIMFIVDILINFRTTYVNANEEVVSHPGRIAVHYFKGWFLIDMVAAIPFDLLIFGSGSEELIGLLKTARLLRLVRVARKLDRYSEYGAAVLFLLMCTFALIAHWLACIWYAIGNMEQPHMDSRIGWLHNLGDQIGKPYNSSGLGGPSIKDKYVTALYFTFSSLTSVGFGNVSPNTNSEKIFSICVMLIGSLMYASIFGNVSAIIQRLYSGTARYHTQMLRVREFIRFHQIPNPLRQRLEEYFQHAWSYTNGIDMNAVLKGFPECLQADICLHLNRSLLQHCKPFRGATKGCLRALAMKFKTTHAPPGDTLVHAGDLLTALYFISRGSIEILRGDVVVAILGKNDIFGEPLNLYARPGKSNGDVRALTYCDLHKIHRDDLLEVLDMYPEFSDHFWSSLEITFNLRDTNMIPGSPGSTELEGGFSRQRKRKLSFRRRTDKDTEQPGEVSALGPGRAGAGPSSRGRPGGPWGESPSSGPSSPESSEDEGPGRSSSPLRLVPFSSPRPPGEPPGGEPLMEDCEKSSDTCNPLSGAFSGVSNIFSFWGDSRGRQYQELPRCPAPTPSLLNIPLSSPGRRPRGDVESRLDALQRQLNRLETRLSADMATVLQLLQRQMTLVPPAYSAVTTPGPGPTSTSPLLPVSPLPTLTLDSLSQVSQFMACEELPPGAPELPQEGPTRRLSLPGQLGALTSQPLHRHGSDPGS

SMILES	hERG current change (%, negative = inhibition) at 1uM [%]
O=C(NCCN1CCOCC1)c1cc(-c2cccc(O)c2)on1	7.87
COc1ccc(NC(=O)C(Cc2ccccc2)n2cccc2)c(OC)c1 (centres unmarked)	-0.667
CCOC(=O)N1CCN(C(=O)C2CC(=O)N(c3ccc(OC)cc3)C2c2ccc(OC)cc2)CC1 (centres unmarked)	-3.04
CC(NC(=O)Cn1nc(C(=O)O)c2ccccc2c1=O)c1ccccc1 (centres unmarked)	4.85
CC(=O)c1cccc(NC(=O)c2cccc3ccccc23)c1	16.4
CCC(Sc1nc2ncccc2[nH]1)C(=O)NCCc1ccccc1 (centres unmarked)	9.29
COc1ccc(NS(=O)(=O)c2ccc(OCC(=O)N3CCOCC3)cc2)cc1Cl	3.9
O=C(CCN1C(=O)/C(=C\c2cccc(Br)c2)SC1=S)NCCCN1CCOCC1	2.23
O=C(Nc1ncc(C(F)(F)F)cc1Cl)c1ccc(S(=O)(=O)N2CCOCC2)cc1	-1.57
CCOc1ccc(CN(C)C(=O)CCNC(=O)c2ccco2)cc1	6.75
Cc1nc2cc3c(cc2c(C)c1C(=O)OC(C)C)OCO3.Cl	4.54
CC(C(=O)N1CCc2ccccc21)N(C)CC(=O)Nc1ccc(F)cc1 (centres unmarked)	-3.18
COC(=O)N1CCN(c2ccc(C(C)=O)cc2)CC1	-6.57
CCOc1ccccc1C(=O)Nc1ccc(S(=O)(=O)N2CCN(C)CC2)cc1	13.8
COc1ccc(C2=NN(CCC(=O)NCc3cccs3)C(=O)CC2)cc1	-3.86
O=C(NCc1ccco1)c1ccc2nc3sc4c(c3c(=O)n2c1)CCCC4	8.21
COc1ccccc1N1CCN(C(=O)Cn2ncc3c([nH]c4ccccc43)c2=O)CC1	5.56
CC1=C(C(=O)N(C)C)C(c2ccc(C)s2)NC(=S)N1 (centres unmarked)	11.6
CCOc1ccc(/C=N/NC(=O)CNC(=O)c2ccc(S(=O)(=O)N3CCOCC3)cc2)cc1	14.4
CCn1cc(C(=O)NC(C)C23CC4CC(CC(C4)C2)C3)cn1 (centres unmarked)	4.6
c1csc(-c2nnc(N3CCOCC3)c3ccccc23)c1	6.88
Cc1nc2ccccc2n1CCC(=O)Nc1cccc(F)c1	12.4
COC(=O)c1[nH]c2ccc(Br)cc2c1NC(=O)CN1CCCCC1CCO (centres unmarked)	5.4

SMILES	hERG current change (%, negative = inhibition) at 1uM [%]
Cc1cc(=O)oc2cc(NC(=O)c3cc(F)ccc3F)ccc12	12.4
C=CCOCCn1[nH]c2ccccc2c1=O	8.64
O=C(Cn1cc([N+](=O)[O-])cn1)N1CCc2ccccc21	7.32
COC(=O)c1ccc(N2CCN(c3ccccc3)CC2)c(NC(=O)C2CC2)c1	-20.7
CCN1CCN(c2ncc(C(=O)Nc3cc(Cl)ccc3OC)c3ccccc23)CC1	-4.26
Cc1ccc(OCCCN2CCOCC2)c([N+](=O)[O-])c1.O=C(O)C(=O)O	0.484
CC(C)CN1CCN(Cc2cccc3c2OCO3)CC1CCO (centres unmarked)	8.37
Cc1cc2ncn(S(=O)(=O)N3CCCCC3)c2cc1C	11.6
N#CC1=C(N)N2C(=C(C#N)C1c1ccc(Br)cc1)Nc1ccccc12 (centres unmarked)	5.45
COc1cc(CC(=O)Nc2cccc(SC)c2)cc(OC)c1OC	42.1
Cl.Nc1nc(N2CCCCC2)nc2ccccc12	-15.9
CN1CCCC(OC(=O)c2ccc(C#N)cc2)C1.Cl (centres unmarked)	12.2
COc1ccc(-n2ccc(=O)c3c2CCCC3=O)cc1	11.2
C=CCn1c(SC(C)C(=O)NCCC2=CCCCC2)nc2ccccc2c1=O (centres unmarked)	-13.7
Cc1cccc(N(C)S(=O)(=O)c2c(C)[nH]c(C)c2C(=O)N2CCCC2)c1	7.4
O=C(CCNC(=O)OCc1ccccc1)NC1CCCCCC1	15.3
COc1ccc(NS(=O)(=O)c2ccc(SC)cc2)c(OC)c1	2.38
Cc1ccc(NC(=O)c2cnn(-c3ccccc3)c2NC(=O)c2ccco2)cc1	5.77
O=C1c2cccc3cccc(c23)C(=O)N1CCCN1CCN(c2ccc(F)cc2)CC1	-26.5
Cc1ccc(O)c(-c2cc(C(=O)Nc3ccc(S(=O)(=O)Nc4nc(C)cc(C)n4)cc3)[nH]n2)c1	-2.13
CCOC(=O)c1ccc(-c2ccc(/C=N/NC(=O)CN(c3cccc(C)c3)S(C)(=O)=O)o2)cc1	7.87
CNc1snc(C)c1C(=O)OCC(=O)c1ccc(OC)c(F)c1	6.59
Cc1ccc2c(CC(=O)OC(C)C(=O)NCc3ccc4c(c3)OCO4)coc2c1 (centres unmarked)	21.7

SMILES	hERG current change (%, negative = inhibition) at 1uM [%]
O=C1N(Cc2cccc(Cl)c2)C[C@@H]2C[C@@H](c3ccco3)N3CCC[C@@]123	2.89
CN1CCC(N(C)CC(=O)Nc2ccc3c(c2)OC(F)(F)O3)CC1.O=C(O)C(=O)O	4.53
Cc1onc(-c2ccccc2Cl)c1C(=O)NCc1ccc(F)cc1	13.6
COc1ccc(Cl)cc1Nc1nc2ccc(C)cc2n2cnnc12	21.4
Cc1cc2oc(=O)cc(CN(C)Cc3ccc(OC(F)F)cc3)c2cc1Cl	13.8
Clc1ccc(OCc2nc(-c3ccncc3)no2)cc1	7.49
CCOc1ccc2nc(SC3CC(=O)N(c4cccc(OC)c4)C3=O)sc2c1 (centres unmarked)	17.4
COc1ccc(-n2c(Cc3cccc([N+](=O)[O-])c3)nc3ccccc3c2=O)cc1	-8.06
c1ccc(CN2OCC3Cn4c(nc5ccccc54)C32)cc1 (centres unmarked)	18.9
CSCCC(NC(=O)c1ccccc1Cl)C(=O)N1CCN(c2ccccn2)CC1 (centres unmarked)	-8.83
O=C(NNc1ccc(Cl)nn1)c1ccc(Cl)cc1	1.83
O=S(=O)(Nc1ncn[nH]1)c1ccc2ccccc2c1	6.92
COCCNC(=O)CSc1ccccc1C(=O)NCC1CCCCC1	8.03
O=C(COc1ccccc1)Nc1nnc(S(=O)(=O)N2CCCC2)s1	12.5
N#C/C(=C\c1ccc(Cl)cc1)c1nc2ccccc2o1	1.79
Cc1cnc(C(=O)OCC(=O)Nc2ccc(C)c(S(=O)(=O)N3CCCCCC3)c2)cn1	7.47
CCOC(=O)CSc1nc2c(cnn2-c2ccc(C)cc2)c(=O)[nH]1	8.51
Cc1ccccc1C(N)c1ccncc1.Cl (centres unmarked)	11.3
COc1ccccc1CNC(=O)/C=C/c1ccc(Br)o1	-7.25
CC(C)(C)NC(=O)CN(C(=O)CNS(=O)(=O)c1ccccc1)c1ccc2c(c1)OCCO2	11.3
CCCc1cc(=O)[nH]c(SCC(=O)NC2CCCCC2)n1	13.7
O=C(CCc1nc2ccccc2c(=O)[nH]1)OCC(=O)c1ccc(C2CCCCC2)cc1	-1.64
Cc1ccc(C(=O)OCCN(C)Cc2ccccc2)cc1.Cl	-17.1

SMILES	hERG current change (%, negative = inhibition) at 1uM [%]
COc1ccc(CC(=O)NCc2cn3ccsc3n2)cc1	12.3
Cc1ccc(C2=[N+]([O-])C(C)(C)N(O)C2(C)C)cc1	16.8
COc1ccc(-c2c(N)nnc3c2[nH]c2ccccc23)cc1OC.Cl	4.85
CCCC(C)n1[nH]c(=O)c2c(C)cc(C)nc21 (centres unmarked)	6.36
CCOC(=O)c1[nH]cnc1C(=O)NC1CCCCC1	19.2
CN(C)CC(C)(C)CNS(=O)(=O)c1cccc2nsnc12	-2.43
COc1ccc(-c2nc(NCCCN(C)C)c3ccccc3n2)cc1.Cl	3.72
Cc1ccccc1N(CC(=O)NC1CCCCC1)C(=O)CNC(=O)c1cccs1	-17.3
COC(=O)COc1cc(C)cc2oc(=O)c(CC(=O)OC)c(C)c12	5.08
CCOCCCNC(=O)C1CCCN(S(=O)(=O)CC)C1 (centres unmarked)	1.94
COc1cc(C(=O)Nc2cccc(S(=O)(=O)N3CCCC3)c2)cc(OC)c1C	13.5
CCOc1cc(NC(=O)c2ccccn2)c(OCC)cc1NC(=O)c1ccc(OC)cc1	3.95
O=C(c1ccc([N+](=O)[O-])cc1[N+](=O)[O-])N1CCN(C(=O)C2CCCO2)CC1 (centres unmarked)	7.49
Cc1cnc(NC(=O)CC(C)c2ccccc2)s1 (centres unmarked)	9.29
Cc1ccc(NC(=S)NNC(=O)Nc2ccccc2)cc1	23.6
COc1ccc(CCNC(=O)c2cc3c(=O)n4ccccc4nc3n(CCCN3CCOCC3)c2=N)cc1	-88.9
COc1cc(C)c(NC(=S)Nc2cccc(Cl)c2)cc1OC	16.8
COc1ccc(C)cc1NC(=O)C(Sc1nnc(-c2ccncc2)n1-c1ccc(Cl)cc1)c1ccccc1 (centres unmarked)	18.1
CN(C)S(=O)(=O)N1CCN(CC(O)COc2ccc3cc(Br)ccc3c2)CC1 (centres unmarked)	4.82
CC(C)Cc1cc(CNC(=O)C2CCC(=O)N(CCc3cccc(F)c3)C2)on1 (centres unmarked)	-8.46
